Assay results from the supplement of paper PMC6609913.
Where a name gives a salt, the structure may show the parent alone. ± gives the standard deviation of the averaged measurements. Whole data set: some 1,300 compounds, median “normalised cell viability” near 1, cut for the lowest 2% near 0.15. This is one part of the list.

Tested on: V-C8 + BRCA2 (BRCA2-proficient hamster cells)
Assay: normalised cell viability (fraction of plate median); higher = more viable cells (less toxic)
Conditions: 5 µM
In short: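 Hamster V-C8 cells lacking BRCA2 and V-C8 cells with BRCA2 restored were seeded in 96-well plates. Library drugs (10 mM DMSO stocks) were added 24 h later at 5 μM in 100 μl medium, next to DMSO control wells, for 3 days (screen 1) or 6 days (screen 2). Cell viability was read by resazurin assay, median-plate normalised (modified robust per cent of sample), and triplicate wells were averaged.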

| Structure (SMILES) | normalised cell viability (treatment time: 3 days) | normalised cell viability (treatment time: 6 days) |
| --- | --- | --- |
| Nc1ccc(S(=O)(=O)Nc2ccc(Cl)nn2)cc1 [Sulfachloropyridazine] | 0.941 ± 0.026 | 0.972 ± 0.065 |
| CN(C)CCCOc1nn(Cc2ccccc2)c2ccccc12 [Benzydamine hydrochloride] | 1.32 ± 0.034 | 1.38 ± 0.08 |
| C#C[C@]1(O)CC[C@H]2[C@@H]3[C@H](C)CC4=C(CCC(=O)C4)[C@H]3CC[C@@]21C [Tibolone] | 1.07 ± 0.013 | 1.04 ± 0.045 |
| CC(=O)OCC(=O)[C@@]1(O)CC[C@H]2[C@@H]3CCC4=CC(=O)C=C[C@]4(C)[C@@]3(F)[C@@H](O)C[C@@]21C [Isoflupredone acetate] | 0.901 ± 0.067 | 1.02 ± 0.08 |
| NCc1ccccc1CC(=O)N[C@@H]1C(=O)N2C(C(=O)O)=C(CSc3nnnn3CC(=O)O)CS[C@H]12 [Ceforanide] | 1.04 ± 0.073 | 1.01 ± 0.12 |
| N=C(NCCCCCCNC(=N)NC(=N)Nc1ccc(Cl)cc1)NC(=N)Nc1ccc(Cl)cc1 [Chlorhexidine] | 0.117 ± 0.0076 | 0.103 ± 0.0066 |
| CN1CCN(C2=Nc3ccccc3Oc3ccc(Cl)cc32)CC1 [Loxapine succinate] | 1.19 ± 0.087 | 1.1 ± 0.048 |
| C[N+]1(C)CCC(OC(=O)C(O)(c2ccccc2)C2CCCC2)C1 (stereo not drawn) [Glycopyrrolate] | 1.07 ± 0.012 | 1.04 ± 0.12 |
| Clc1ccc(CCC(Cn2ccnc2)Sc2c(Cl)cccc2Cl)cc1 (stereo not drawn) [Butoconazole nitrate] | 0.898 ± 0.05 | 0.906 ± 0.057 |
| N#Cc1ccc(C(c2ccc(C#N)cc2)n2cncn2)cc1 [Letrozole] | 1.02 ± 0.022 | 1.02 ± 0.028 |
| C[C@@H]1C[C@H]2[C@@H]3C[C@H](F)C4=CC(=O)C=C[C@]4(C)[C@@]3(F)[C@@H](O)C[C@]2(C)[C@@]1(O)C(=O)CO [Flumethasone] | 1.04 ± 0.064 | 1.06 ± 0.079 |
| O=C(O)Cc1ccc(-c2ccccc2)cc1 [Felbinac] | 1.03 ± 0.03 | 1.09 ± 0.037 |
| O=C(O)c1cn(-c2ccc(F)cc2)c2cc(N3CCNCC3)c(F)cc2c1=O [Sarafloxacin] | 1.07 ± 0.09 | 1.02 ± 0.044 |
| O=C1c2c(O)cccc2Cc2cccc(O)c21 [Anthralin] | 0.979 ± 0.036 | 0.978 ± 0.018 |
| COc1cc(C(=O)OCCCN2CCCN(CCCOC(=O)c3cc(OC)c(OC)c(OC)c3)CC2)cc(OC)c1OC [Dilazep dihydrochloride] | 0.913 ± 0.096 | 0.92 ± 0.077 |
| CC(=O)Oc1ccccc1C(=O)Nc1ncc([N+](=O)[O-])s1 [Nitazoxanide] | 0.912 ± 0.043 | 0.97 ± 0.099 |
| CCN(CC)CCOC(=O)C1(C2CCCCC2)CCCCC1 [Dicyclomine hydrochloride] | 1.06 ± 0.026 | 0.997 ± 0.016 |

| Structure (SMILES) | normalised cell viability (treatment time: 3 days) | normalised cell viability (treatment time: 6 days) |
| --- | --- | --- |
| CCCCC(O)c1ccccc1 (stereo not drawn) [Fenipentol] | 1.03 ± 0.043 | 1.03 ± 0.017 |
| CC(N/C(=N\C#N)Nc1ccncc1)C(C)(C)C (stereo not drawn) [Pinacidil] | 0.994 ± 0.056 | 0.967 ± 0.027 |
| NS(=O)(=O)c1cc(C2(O)NC(=O)c3ccccc32)ccc1Cl (stereo not drawn) [Chlorthalidone] | 1.1 ± 0.018 | 1.03 ± 0.079 |
| C=CC(N)CCC(=O)O (stereo not drawn) [Vigabatrin] | 1.02 ± 0.03 | 1.11 ± 0.058 |
| CC(C)c1c(C(=O)Nc2ccccc2)c(-c2ccccc2)c(-c2ccc(F)cc2)n1CC[C@@H](O)C[C@@H](O)CC(=O)O [Atorvastatin] | 0.701 ± 0.01 | 0.743 ± 0.017 |
| Cc1ncc(C[n+]2csc(CCO)c2C)c(N)n1 [Thiamine hydrochloride] | 1.03 ± 0.043 | 1.02 ± 0.076 |
| CC(=O)OCC(=O)[C@@]1(O)CC[C@H]2[C@@H]3CCC4=CC(=O)CC[C@]4(C)[C@H]3[C@@H](O)C[C@@]21C [Cortisol acetate] | 1.07 ± 0.047 | 1.14 ± 0.14 |
| CCN[C@H]1CN(CCCOC)S(=O)(=O)c2sc(S(N)(=O)=O)cc21 [Brinzolamide] | 1.16 ± 0.015 | 1.02 ± 0.024 |
| CC[N+](C)(CC)CCOC(=O)C1c2ccccc2Oc2ccccc21 [Methantheline bromide] | 1.02 ± 0.039 | 0.993 ± 0.1 |
| Cc1ccc(C(=O)c2ccc(CC(=O)O)n2C)cc1 [Tolmetin sodium salt dihydrate] | 1.03 ± 0.035 | 1 ± 0.021 |
| COC(=O)Nc1nc2cc(C(=O)c3cccs3)ccc2[nH]1 [Nocodazole] | 0.143 ± 0.0097 | 0.132 ± 0.01 |
| CCCCN(CCCC)CCCOC(=O)c1ccc(N)cc1 [Butacaine] | 1.01 ± 0.022 | 1.08 ± 0.044 |
| CC(=O)OCC(=O)[C@@]1(O)CC[C@H]2[C@@H]3CCC4=CC(=O)CC[C@]4(C)[C@@]3(F)[C@@H](O)C[C@@]21C [Fludrocortisone acetate] | 1.04 ± 0.025 | 1.05 ± 0.039 |
| Cc1cn[nH]c1 [Fomepizole] | 1.07 ± 0.021 | 0.9639 ± 0.0076 |
| NCCc1c[nH]cn1 [Histamine dihydrochloride] | 0.994 ± 0.016 | 0.991 ± 0.064 |
| CCCOc1cc(N)ccc1C(=O)OCCN(CC)CC [Propoxycaine hydrochloride] | 1.06 ± 0.053 | 0.916 ± 0.26 |
| OC(Cn1cncn1)(Cn1cncn1)c1ccc(F)cc1F [Fluconazole] | 1.04 ± 0.019 | 0.944 ± 0.079 |
